From PubChem BioAssay AID493208 (National Center for Advancing Translational Sciences (NCATS), 2011)
About 340 (0.77%) of roughly 44,000 compounds were called active. Not shown: some 5% with an inconclusive outcome. Calls come from the whole dose curve; as a rule, active = well fitted inhibition curve with a large enough effect; inconclusive = small, poorly fitted or top-dose-only effect; inactive = flat fitted curve, though single readings scatter. The list shows a part of the results.

experiment: Acumen qHTS Assay for Inhibitors of the mTORC1 Signaling Pathway in MEF (Tsc2-/-, p53-/-) Cells: Sytravon; settings: phospho-rpS6 immunofluorescence/PI, 24 h; series mostly up to 38.3 µM; activity change, negative = inhibition: at the top concentration;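 note: plate controls were DMSO for no effect and rapamycin for full effect; nearly all actives have a fitted effect of over 50% in size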
Outline: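 Compounds act on Tsc2-/-, p53-/- fibroblasts carrying an empty vector for 24 h before fixation and dual staining for phospho-S6 and DNA (propidium iodide). Values are percentages of cells above a rapamycin-defined pS6/PI threshold.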

Activity change, negative = inhibition, inactive:
CC(CNC(=O)c1ccc(Cn2c(SCc3ccccc3)nc3cccnc32)cc1)c1ccccc1 (stereo unspecified) -10.6%, COc1ccc2oc(=O)cc(CN3CCN(C(=O)c4ccccc4)CC3)c2c1 3.8%, O=C(Nc1ccc(O)c(-c2nc3ccccc3o2)c1)c1cccs1 3.6%, CCOc1ccc(NC(=O)c2oc3ccccc3c2NC(=O)Cc2ccc(OC)c(OC)c2)cc1 -2.72%, Cc1ccc(C)c(CN2C(=O)c3ccccc3Sc3ccc(C(=O)NCCCOC(C)C)cc32)c1 -0.694%, CCOC(=O)c1ccc(N2C(=O)c3n[nH]c(C)c3C2c2ccc(C(C)C)cc2)cc1 (stereo unspecified) 8.47%, O=C(CSc1n[nH]c(-c2ccccc2Cl)n1)N1CCN(c2ccc(F)cc2)CC1 -8.7%, CC(C)c1nn2c(=O)cc(COC(=O)c3ccc(NC(=O)c4ccccc4Cl)cc3)nc2s1 0%, Cn1cc(S(=O)(=O)N2CCCC2)cc1C(=O)Nc1ccc(C(F)(F)F)cc1 -12.8%, O=C(Nc1ccc(NC(=O)c2ccc(Br)cc2)c(Cl)c1)c1ccc(Br)cc1 2.29%, COc1ccccc1-c1nnc(C2CCN(S(=O)(=O)c3ccccc3)CC2)o1 -13.3%, COc1ccc(C(=O)Nc2nc3ccc(S(=O)(=O)N4CCCC4)cc3s2)cc1 2.82%, COc1cccc2cc(-c3nnc(-c4ccc(Cl)cc4)o3)c(=O)oc12 1.58%, CCc1nn(CC(=O)N2CCN(c3cccc(C(F)(F)F)c3)CC2)c(=O)c2cc3occc3n12 -1.26%, COc1cccc(N2CCN(C(=O)Cn3cnc4onc(-c5ccc(F)cc5)c4c3=O)CC2)c1 -8.52%, CCCCCn1c(=O)[nH]c2cc(C(=O)Nc3ccc(OC)c(OC)c3)ccc2c1=O 0.403%, COc1cccc(-c2nc(CS(=O)(=O)CC(=O)NCCCN3CCN(C)CC3)c(C)o2)c1 3.35%, COc1ccc(C)cc1NC(=O)C1CCCN(S(=O)(=O)c2ccc3c(c2)oc(=O)n3C)C1 (stereo unspecified) 7.27%, Cc1cccc(Cn2c(SCc3ccc(C(=O)NCCc4ccccc4)cc3)nc3cccnc32)c1 -5.22%, CC(=O)Nc1ccc(S(=O)(=O)N2CCN(c3ccccc3)CC2)cc1 0.681%, CC(=O)Nc1cccc(NC(=O)C2(c3cccs3)CCOCC2)c1 2.05%, Cc1ccc(SCc2nc(-c3ccc(C(=O)NCc4ccccc4Cl)cc3)oc2C)cc1 0.0523%, CCOC(=O)CC(=O)CSc1nc2ccccc2c(=O)n1CCc1ccccc1 1.91%, COc1cccc(-c2nnc3n(CCc4ccccc4)c(=O)c4ccccc4n23)c1O -4.06%, COc1cccc(CNC(=O)CN(c2ccc(C(C)C)cc2)S(=O)(=O)c2c(C)n[nH]c2C)c1 2.51%, Cn1c(=O)c(=O)n(C)c2cc(N3CCCC3)c(NC(=O)c3ccc(C(C)(C)C)cc3)cc21 6.4%, Cc1cccc(NC(=O)CSc2cn(CC(=O)N3CCOCC3)c3ccccc23)c1 3.24%, COc1ccc(S(=O)(=O)N(CCc2ccccc2)CC(=O)Nc2cc(C)ccc2C)cc1 -4.45%, CCc1ccc(NC(=O)C2CCN(S(=O)(=O)c3c(C)noc3/C=C/c3cccs3)CC2)cc1 -1.3%, CCn1cc(C(=O)NCCOC)c(=O)c2cc(S(=O)(=O)N3CCOCC3)ccc21 -0.156%, CCSc1nnc2c(n1)OC(c1ccc(OCC(=O)O)cc1)Nc1ccccc1-2 (stereo unspecified) -3.24%, COc1cc(OC)cc(C(=O)Nc2ccc3oc(-c4ccc(Cl)cc4)nc3c2)c1 -6.68%, CCOC(=O)C1=C(c2ccccc2)Nc2ncnn2C1c1ccc(Cl)cc1 (stereo unspecified) 0.904%, O=C(CCC1N=C2c3ccccc3N=C(SCC(=O)Nc3ccccc3F)N2C1=O)NCc1cccs1 (stereo unspecified) -23.6%, CCOc1ccccc1CNC(=O)CN1C(=O)CCn2nc(-c3cn(C)c4ccccc34)cc21 -14.1%, O=C(c1ccc2c(c1)N(Cc1cccc(Cl)c1)C(=O)c1ccccc1S2(=O)=O)N1CCC(Cc2ccccc2)CC1 0%, COc1ccc(CNC(=O)c2ccc3c(c2)NC(=O)C(CS(=O)(=O)Cc2ccccc2Cl)N3)cc1 (stereo unspecified) 4.6%, CCc1cccc(CC)c1NC(=O)c1c(C)oc2ccc(O)c(CN3CCOCC3)c12 2.06%, Cc1nc2ccc(S(=O)(=O)N(CC(=O)Nc3ccc(Cl)cc3)Cc3ccccc3)cc2s1 -4.84%, CCOC(=O)c1cccc(NS(=O)(=O)c2c(C)nc3sc(C)cn3c2=O)c1 -6.25%, CSc1cccc(N2C(=O)N(CC(=O)NCc3ccccc3Cl)c3ccccc3S2(=O)=O)c1 -15.4%, CCOc1ccccc1N(C)C(=O)Cn1cnc2onc(-c3ccc(F)cc3)c2c1=O -4.28%, CC(C)CCOc1ccc(Oc2nc(N(C)C)nc(N(C)C)n2)nn1 3.8%, COc1ccccc1-n1ncc2c(=O)[nH]c(SCC(=O)Nc3cccc(F)c3)nc21 -6.97%, COc1ccc2c(CNCc3cccs3)c(C(=O)O)n(Cc3ccc(F)cc3Cl)c2c1 -0.715%, CCOc1ccc(C(=O)c2oc3ccccc3c2NC(=O)c2cc(-c3ccccc3)on2)cc1 0.498%
